Data from the supplement of paper PMC10320760.
Single values of this set are uncertain.

B1: Ydj1; a variant is named by its letters at X, in order (parent)
chain: MVKETKFYDILGVPVTATDVEIKKAYRKCALKYHPDKNPSEEAAEKFKEASAAYEILSDPEKRDIYDQFGEDGLSGAGGAGGFPGGGFGFGDDIFSQFFGAGGAQRPRGPQRGKDIKHEISASLEELYKGRTAKLALNKQILCKECEGRGGKKGAVKKCTSCNGQGIKFVTRQMGPMIQRFQTECDVCHGTGDIIDPKDRCKSCNGKKVENERKILEVHVEPGMKDGQRIVFKGEADQAPDVIPGDVVFIVSERPHKSFKRDGDDLVYEAEIDLLTAIAGGEFALEHVSGDWLKVGIVPGEVIAPGMRKVIEGKGMPIPKYGGYGNLIIKFTIKFPENHFTSEENLKKLEEILPPRIVPAIPKKATVDECVLADFDPAKYNRTRASRGGANYDSDEEEQGGEGVQCXXX

Variants of: B1
Assay: enrichment factor, frequency at 37 °C / frequency at 25 °C (thermotolerance selection) (ratio); higher = more growth at 37 °C, higher likelihood of farnesylation
Settings: with Saccharomyces cerevisiae ydj1Δ (yWS304); selective temperature 37 °C; reference temperature 25 °C
Method: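 Pooled library of all 8,000 Ydj1-CXXX C-terminal motif variants (native CASQ replaced by C + three variable residues, one codon per amino acid) expressed from a CEN plasmid in S. cerevisiae ydj1Δ (yWS304). The library was grown in SC-Ura liquid to A600 ~2 (~8 generations) at permissive 25 °C or selective 37 °C. Reads from 8 and 7 replicates were pooled and variants counted by NGS. Enrichment factor = frequency at 37 °C / frequency at 25 °C, with a +1 correction; it reports Ydj1-dependent thermotolerance, used as a read-out of farnesylation by yeast FTase.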

Variant	enrichment factor
KLQ	1.85
KLH	0.811
KLP	0.138
KLS	1.72
KLM	1.03
KLL	1.54
KLK	1.3
KLY	2.11
KLW	0.602
KLT	2.54
KLR	0.113
KLG	1.03
KLI	0.901
KLV	2.73
KLN	2.51
KLF	0.842
LMA	1.8
QLY	2.76
QLR	0.868
QLQ	4.11
QLG	2.36
QLW	0.788
QLK	1.45
QLH	2.53

Variant	enrichment factor
QLL	1.25
QLI	1.19
QLV	3.96
QLT	2.85
QLF	2.43
QLM	1.5
QLP	0.171
QLN	3.35
QLS	2.51
ILL	1.84
ILG	1.85
ILN	1.85
ILV	0.96
ILT	1.03
ILW	1.21
ILR	1.59
ILP	0.174
ILM	1.23
ILH	2.46
ILQ	2.07
ILI	1.12
ILY	3.01
ILS	1.76
ILK	2.67

Variant	enrichment factor
MLH	1.74
MLF	0.965
MLQ	2.8
MLP	0.255
MLS	2.24
MLT	1.93
MLR	0.23
MLI	1.25
MLK	1.69
MLG	2.15
MLY	1.51
MLM	0.55
MLV	4.05
MLN	2.24
MLW	1.2
MLL	0.892
SMA	2.29
AMA	1.48
CMA	0.882
IMA	1.95
ALM	1
ALW	1.16
ALL	0.873
ALT	0.713

Variant	enrichment factor
ALS	1.72
ALN	1.77
ALQ	2.38
ALG	2.15
ALR	0.988
ALI	0.892
ALV	0.806
ALP	0.273
ALK	2.03
ALF	1.87
ALH	2.82
ALY	0.886
RLF	1.05
RLW	1.79
RLH	3.36
RLI	0.739
RLN	2.14
RLV	0.641
RLG	0.993
RLQ	2.41
RLT	1.39
RLS	1.08
RLP	0.157
RLK	1.24

Variant	enrichment factor
RLY	1.4
RLM	0.997
RLR	0.107
RLL	0.772
YLV	1.74
YLT	1.62
YLS	3.71
YLM	1.16
YLY	2.75
YLK	1.88
YLF	1.45
YLR	0.153
YLI	3.47
YLL	2.2
YLQ	4.34
YLP	3.21
YLN	1.39
YLW	1.17
YLH	3.05
YLG	2.55
DLQ	2.38
DLS	2.06
DLN	1.72
DLI	0.986

Variant	enrichment factor
DLT	1.7
DLM	1.16
DLG	1.33
DLF	1.85
DLW	0.865
DLH	1.57
DLV	1.17
DLP	0.267
DLK	0.153
DLR	0.132
DLY	1.43
DLL	1.2
WLK	0.364
WLF	1.74
WLY	2.06
WLP	3.38
WLW	2.46
WLI	2.25
WLV	3.19
WLG	2.51
WLM	0.386
WLQ	2.99
WLT	1.7
WLS	2.9

Variant	enrichment factor
WLR	0.242
WLL	1.66
WLH	3
WLN	0.441
PMA	1.1
FMA	1.35
FLN	3.47
FLH	3.38
FLT	0.579
FLW	1.55
FLM	2.03
FLP	3.8
FLK	0.692
FLQ	2.08
FLG	3.31
FLR	0.292
FLY	2.09
FLL	1.95
FLI	1.01
FLF	0.772
FLV	3.47
FLS	3.47
TLR	0.809
TLH	1.59

Variant	enrichment factor
TLL	0.654
TLT	0.98
TLY	1.02
TLN	1.58
TLG	1.61
TLP	0.114
TLM	0.799
TLI	1.2
TLW	0.607
TLQ	1.77
TLK	2.03
TLF	3.35
TLS	1.08
TLV	0.598
RMA	3.09
QMA	2.92
PLR	0.192
PLY	0.959
PLF	0.965
PLM	0.761
PLN	1.36
PLI	0.745
PLP	0.117
PLW	0.958

Variant	enrichment factor
PLQ	1.32
PLT	1.58
PLV	1.2
PLL	1
PLK	1.82
PLG	1.09
PLS	1.5
PLH	1.61
HLM	0.662
HLP	2.76
HLR	0.133
HLY	0.869
HLV	0.993
HLF	1.35
HLQ	4.03
HLS	2.84
HLG	1.39
HLT	2.36
HLL	1.85
HLI	2.14
HLN	1.21
HLH	2.23
HLW	1.7
HLK	1.83

Variant	enrichment factor
EMA	1.96
KMA	4.05
CLN	1.02
CLH	1.63
CLR	0.716
CLI	0.537
CLK	0.906
CLT	0.965
CLF	0.802
CLV	0.726
CLM	0.752
CLG	0.989
CLY	0.999
CLP	1.01
CLW	0.169
CLL	1.02
CLQ	1.13
CLS	0.746
ELN	1.05
ELM	2.25
ELY	1.9
ELK	1.62
ELR	0.53
ELF	0.975

Variant	enrichment factor
ELP	0.132
ELQ	2.59
ELI	1.13
ELW	1.29
ELT	2.07
ELS	3.86
ELH	2.03
ELV	2.24
ELG	1.41
ELL	1.36
NMA	1.83
GMA	1.3
LLY	1.88
LLM	1.72
LLL	1.11
LLG	2.08
LLW	1.25
LLN	2.08
LLF	1.06
LLH	2.79
LLI	0.827
LLP	0.215
LLQ	1.79
LLR	0.4

Variant	enrichment factor
LLT	1.99
LLV	2.03
LLS	1.41
LLK	1.56
MMA	2.32
SLN	1.4
SLG	1.59
SLK	1.54
SLI	0.97
SLV	1.07
SLL	0.59
SLW	1.36
SLY	1.85
SLS	0.996
SLH	2.44
SLM	0.634
SLT	0.557
SLF	1.02
SLP	0.19
SLR	0.345
SLQ	2.23
GLH	1.4
GLR	0.185
GLQ	1.47

Variant	enrichment factor
GLM	1.19
GLN	1.92
GLP	0.255
GLS	1.34
GLV	1.26
GLY	1.62
GLI	1.12
GLW	1.42
GLT	1.44
GLG	1.18
GLK	0.593
GLF	3.94
GLL	1.22
VLT	1.06
VLF	0.846
VLR	1.28
VLH	1.44
VLG	0.858
VLQ	1.11
VLI	0.835
VLL	0.796
VLM	0.977
VLN	1.31
VLS	0.494

Variant	enrichment factor
VLY	0.745
VLV	0.749
VLK	1.44
VLP	0.195
HMA	4.56
DMA	1.53
NLK	1.26
NLF	2.51
NLM	1.11
NLQ	2.82
NLL	0.982
NLS	1.36
NLI	0.965
NLV	0.772
NLW	1.11
NLN	2.7
NLG	1.3
NLH	1.82
NLY	1.96
NLP	0.295
NLT	1.35
NLR	0.228
